Source: article PMC7684313, “In vitro and in vivo pharmacological activity of minor cannabinoids isolated from Cannabis sativa” (Scientific Reports, 2020)

Tested on: hCB1R and hCB2R

Q: How did the “selectivity between hCB1R and hCB2R, in words” value turn out when CCCCCc1cc2c(c(O)c1C(=O)O)[C@@H]1C=C(C)CC[C@H]1C(C)(C)O2 [∆^9-THCa, ∆^9-tetrahydrocannabinolic acid] was run?
A: The value was “hCB2R-selective”.
